According to article PMC4342240:
No constants are given. Whether binding was seen depends on the method and setting. Some results given as binding are weak or reduced against the parent protein; the word gives no strength. For some assays here: Sequences can lack the tags named with a protein. Blank lines part the entries; values can stand above or below the molecule they belong to.

The chains behind the UniProt entries cited, without tags or fusion partners. Where a name states a change or a piece, a line headed by the entry shows the natural chain unless it says otherwise. A line that says so, or that is headed by a name, gives the form on record, which may keep a tag or linker. Residues count along the entry.
UniProt P22336: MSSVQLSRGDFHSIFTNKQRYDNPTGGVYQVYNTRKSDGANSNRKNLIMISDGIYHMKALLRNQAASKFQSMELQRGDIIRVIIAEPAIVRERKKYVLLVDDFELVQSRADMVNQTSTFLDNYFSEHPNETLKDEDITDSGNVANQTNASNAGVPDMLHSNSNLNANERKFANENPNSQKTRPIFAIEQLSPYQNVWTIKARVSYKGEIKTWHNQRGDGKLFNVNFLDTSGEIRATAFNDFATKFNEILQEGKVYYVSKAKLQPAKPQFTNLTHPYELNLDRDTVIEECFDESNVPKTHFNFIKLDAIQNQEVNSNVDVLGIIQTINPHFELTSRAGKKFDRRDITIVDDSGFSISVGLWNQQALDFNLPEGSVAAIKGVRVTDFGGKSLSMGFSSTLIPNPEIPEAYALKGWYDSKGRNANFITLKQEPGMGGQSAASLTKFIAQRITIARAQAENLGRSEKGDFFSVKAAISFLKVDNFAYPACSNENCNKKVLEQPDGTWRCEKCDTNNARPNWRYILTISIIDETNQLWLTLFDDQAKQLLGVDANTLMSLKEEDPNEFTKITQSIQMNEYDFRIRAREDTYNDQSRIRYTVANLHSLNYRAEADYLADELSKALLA
BD-Rfa1-FLAB (lexA DNA binding domain fused to Rfa1 truncated at tryptophan 413; plasmid pGP1): residues 1-412 of P22336
BD-Rfa1-t11 (plasmid pENM21) (P22336, form named): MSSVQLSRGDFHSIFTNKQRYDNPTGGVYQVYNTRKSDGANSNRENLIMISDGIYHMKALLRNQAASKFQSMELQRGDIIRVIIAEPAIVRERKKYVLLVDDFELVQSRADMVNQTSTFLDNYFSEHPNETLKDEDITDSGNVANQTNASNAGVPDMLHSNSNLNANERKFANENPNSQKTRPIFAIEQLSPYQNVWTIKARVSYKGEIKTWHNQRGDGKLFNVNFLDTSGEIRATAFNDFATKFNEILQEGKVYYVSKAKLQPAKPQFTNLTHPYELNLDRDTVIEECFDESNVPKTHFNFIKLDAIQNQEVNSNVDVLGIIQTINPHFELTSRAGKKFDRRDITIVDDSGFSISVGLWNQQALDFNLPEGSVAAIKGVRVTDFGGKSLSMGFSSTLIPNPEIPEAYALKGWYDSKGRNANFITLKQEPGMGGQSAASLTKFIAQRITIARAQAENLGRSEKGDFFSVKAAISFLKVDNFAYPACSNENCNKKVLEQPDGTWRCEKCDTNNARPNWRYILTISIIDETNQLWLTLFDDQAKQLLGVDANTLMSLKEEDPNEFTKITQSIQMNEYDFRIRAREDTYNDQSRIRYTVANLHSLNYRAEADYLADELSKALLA
UniProt P26754: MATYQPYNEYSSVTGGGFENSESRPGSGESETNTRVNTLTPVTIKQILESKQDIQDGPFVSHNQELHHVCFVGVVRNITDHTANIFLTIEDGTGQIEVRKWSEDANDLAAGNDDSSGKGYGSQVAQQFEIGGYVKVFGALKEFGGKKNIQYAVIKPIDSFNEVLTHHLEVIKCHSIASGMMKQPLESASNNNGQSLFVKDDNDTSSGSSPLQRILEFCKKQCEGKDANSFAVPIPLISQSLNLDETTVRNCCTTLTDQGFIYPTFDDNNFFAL
UniProt P26755: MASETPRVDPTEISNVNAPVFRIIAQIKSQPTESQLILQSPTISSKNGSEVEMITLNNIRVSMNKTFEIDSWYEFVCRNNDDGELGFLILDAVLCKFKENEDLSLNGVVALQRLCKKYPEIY

Tests used:
[1] = molecular target: BD-Rfa1-FLAB (lexA DNA binding domain fused to Rfa1 truncated at tryptophan 413; plasmid pGP1) (S. cerevisiae) (UniProt P22336); assay: two-hybrid; directed test by replica plating: EGY48 (6xOlexA-LEU2) with lexA bait, B42 prey and pSH18-34 (8xOlexA-lacZ); growth on SG-HTUL and/or blue colour on SG-HTU+X-gal; also done in EGY48 strains with rfa2-Dx or rfa2-Ax in place of RFA2 (Fig. 2E)
[2] = molecular target: BD-Rfa1, full-length (lexA DNA binding domain fused to Rfa1; plasmids pSJH101 and pPM07) (S. cerevisiae) (UniProt P22336); assay: as above
[3] = molecular target: BD-Rfa1-FLAB (lexA DNA binding domain fused to Rfa1 truncated at tryptophan 413; plasmid pGP1) (S. cerevisiae) (UniProt P22336); assay: as above; remark: listed apart in the source
[4] = molecular target: BD-Rfa1, full-length (lexA DNA binding domain fused to Rfa1; plasmids pSJH101 and pPM07) (S. cerevisiae) (UniProt P22336); assay: two-hybrid; liquid beta-galactosidase (ONPG) assay in EGY188 with pSH18-34; pGAL-lexA bait plasmids and B42 prey induced with 2% galactose for 5 hr at 30°C; Miller units normalised to BD-Rfa1 (pPM07) with AD-Rad24-ΔN (pGP2)
[5] = molecular target: BD-Rfa1-t11 (plasmid pENM21) (S. cerevisiae) (UniProt P22336); assay: two-hybrid; liquid beta-galactosidase assay of the EGY48 cells of Fig. 2C (pSJH101 or pENM21 bait, pGP2 prey, pSH18-34); four independent transformants in one experiment; normalised to BD-Rfa1 (pPM07) with AD-Rad24-ΔN
[6] = molecular target: BD-Rfa1, full-length (plasmid pENM17) (S. cerevisiae) (UniProt P22336); assay: two-hybrid; directed test by replica plating: EGY48 (6xOlexA-LEU2) with lexA bait, B42 prey and pSH18-34 (8xOlexA-lacZ); growth on SG-HTUL and/or blue colour on SG-HTU+X-gal; also done in EGY48 strains with rfa2-Dx or rfa2-Ax in place of RFA2 (Fig. 2E)
[7] = molecular target: BD-Rfa1-t11 (plasmid pENM21) (S. cerevisiae) (UniProt P22336); assay: as above
[8] = molecular target: BD-Rfa1-FLAB (lexA DNA binding domain fused to Rfa1 truncated at tryptophan 413; plasmid pGP1) (S. cerevisiae) (UniProt P22336); assay: two-hybrid; library screen: DupLEX-A system, bait BD-Rfa1-FLAB (pGP1) in EGY48 (6xOlexA-LEU2) with pSH18-34 (8xOlexA-lacZ), S. cerevisiae genomic DNA prey library in pJG4-5; selection by growth on SG-His-Trp-Ura-Leu at 30°C, retest on SD-HTUL and SG-HTUL; prey inserts sequenced

- binding [1]: no binding
Molecule: AD-Rfa2 (B42 activation domain fused to Rfa2; plasmid pENM11) (from UniProt P26754 1-273)

- binding [1]: no binding
Molecule: AD-Rfa3 (B42 activation domain fused to Rfa3; plasmid pENM12) (from UniProt P26755 1-122)

- binding [2]: binds
- binding [3]: binds
B1: Rad24-ΔC1 (Rad24 C-terminal peptide 461-659 with aa 461-527 deleted) (domain or fragment, UniProt P32641 528-659)
chain: KVENGIDVVDRIGGPIEALSVEDGLAPLMDNDSNNCDHLEDQKKERDRRLRMLIDQYERNVMMANDDLEDEETSFNDDPIVDSDSDNSNNIGNETFGRSDEDESLCEILSQRQPRKAPVISESLSDSDLEIL

- binding [2]: binds
- binding [3]: binds
B2: Rad24-ΔC2 (Rad24 C-terminal peptide 461-659 with aa 528-594 deleted) (domain or fragment, UniProt P32641)
chain: EDWLNVSLYKYNAVHSFRNITLEFGYYAPLIRKCQSYKKKYILYYLKNLPSGSSGPKQTMDKFSDIMLEDEETSFNDDPIVDSDSDNSNNIGNETFGRSDEDESLCEILSQRQPRKAPVISESLSDSDLEIL

- binding [4]: no binding
B3: AD-Rad24-ΔC (Rad24 aa 1-460; plasmid pGP18) (domain or fragment, UniProt P32641 1-460)
chain: MDSTNLNKRPLLQYSLSSLGSQITKWSSSRPTSPVRKARSTENDFLSKQDTSSILPSINDDGGEQWYEKFKPNCLEQVAIHKRKLKDVQEALDAMFLPNAKHRILLLSGPSGCSKSTVIKELSKILVPKYRQNSNGTSFRSTPNEHKVTEFRGDCIVNDLPQMESFSEFLKGARYLVMSNLSLILIEDLPNVFHIDTRRRFQQLILQWLYSSEPLLPPLVICITECEIPENDNNYRKFGIDYTFSAETIMNKEILMHPRLKRIKFNPINSTLLKKHLKFICVQNMKMLKEKNKWNKRQEVIDYIAQETGDIRSAITTLQFWATSSGSLPISTRESTISYFHAIGKVIHGSHSTNNDNEMINNLFENSNNLLSKEDFKLGILENYNTFNKGEFSISDASSIVDCLSECDNMNGLPESNEYGLREVRKTFRNISKQGHNHGTVYFPREWKVRKLQNSFKVQA

- binding [5]: binds
- binding [4]: binds
- binding [2]: binds
- binding [6]: binds
- binding [3]: binds
- binding [7]: binds
- binding [8]: binds
B4: AD-Rad24-ΔN (Rad24 C-terminal peptide, aa 461-659; plasmid pGP2) (domain or fragment, UniProt P32641 461-659)
chain: EDWLNVSLYKYNAVHSFRNITLEFGYYAPLIRKCQSYKKKYILYYLKNLPSGSSGPKQTMDKFSDIMKVENGIDVVDRIGGPIEALSVEDGLAPLMDNDSNNCDHLEDQKKERDRRLRMLIDQYERNVMMANDDLEDEETSFNDDPIVDSDSDNSNNIGNETFGRSDEDESLCEILSQRQPRKAPVISESLSDSDLEIL
